# Test results taken from PubChem BioAssay (Tox21).
# This list was built around the results that the source calls inconclusive (neither active nor inactive); the mix of calls is not that of the screen. For some of these results: Potencies of inconclusive entries are doubtful fits and often do not repeat. Active and inactive are the calls of the source. Unless noted, calls follow the shape of the dose curve; as a rule, active = well fitted curve in the direction sought with a large enough effect in the repeat runs; inconclusive = weak or mixed curves; inactive = no such curve, though single readings can be large; an effect the other way counts as inactive or inconclusive.
# Tests used:
# [1] = biological target: Estrogen receptor beta (Homo sapiens) (UniProt Q92731); experiment: qHTS assay to identify small molecule antagonists of the estrogen receptor beta (ER-beta) signaling pathway (AID 1259378; active = well fitted inhibition curve with a large enough effect in the signal ratio in the repeat runs, not every such curve was filed as active; inconclusive = weak or mixed curves, or effect the other way; inactive = no such curve, though single readings can be large or run the other way; the % refers to the signal ratio; also: potency is read from the fitted curve at half-maximal effect; as to activity, negative = inhibition: % is scaled to controls: 0 for no effect and ±100 for the full control effect); details: ER-beta-UAS-bla HEK293T, beta-lactamase FRET ratio, 16 h; activity, negative = inhibition: at 92.4 µM (top of the series) unless noted
# Outline: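 ER-beta-UAS-bla HEK293T (GripTite) cells in 2% charcoal-stripped FBS medium were preincubated 6 hr at 37C, dosed with compound, then stimulated with 1 nM E2 (final) for 16 hr; beta-lactamase reporter read by B/G FRET fluorescence after 2 hr substrate loading.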
# [2] = qHTS assay to identify small molecule agonists of the androgen receptor (AR) signaling pathway in the presence of an antagonist - cell viability counter screen (AID 1259379); details: MDA-kb2 viability, CellTiter-Fluor, 16 h; series mostly up to 92.4 µM; also: potency is read from the fitted curve at half-maximal effect; nearly all actives have a fitted effect of over 25% in size
# Outline: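 Fluorescence from CellTiter-Fluor, added after 15 hr and read 1 hr later, gave cell viability. Cells were MDA-kb2 exposed to compounds (15 concentrations) in the presence of 3.0uM nilutamide at 37C, 0% CO2.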
# [3] = qHTS assay to identify small molecule agonists of the estrogen receptor alpha (ER-alpha) signaling pathway in the presence of an antagonist - cell viability counter screen (AID 1259386); details: VM7Luc4E2 viability, CellTiter-Fluor fluorescence, 22 h; series mostly up to 92.4 µM;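 also: potency is read from the fitted curve at half-maximal effect; cells exposed to compounds for 22 h at 37 °C before the viability read; nearly all actives have a fitted effect of over 30% in size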
# Outline: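 Cells are starved of estrogens for 5 days in charcoal-stripped serum, seeded for 24hr and co-treated with ICI-182,780 (10.0nM final) and test compounds. After 22hr at 37C, viability is read as CellTiter-Fluor fluorescence.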
# [4] = biological target: Progesterone receptor (Homo sapiens) (UniProt P06401); experiment: qHTS assay to identify small molecule agonists of the progesterone receptor (PR) signaling pathway (AID 1346784; calls by dose curve; also: % is scaled to controls: 0 for no effect and ±100 for the full control effect; nearly all actives have a fitted effect of over 30% in size); details: PR-UAS-bla HEK293T, beta-lactamase FRET ratio, 16 h; activation: at 92.4 µM (top of the series) unless noted
# Outline: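 PR-UAS-bla HEK 293T cells (beta-lactamase reporter under UAS) in 2% charcoal-stripped FBS, dosed with 23 nL compound after 6 hr, incubated 16hr at 37C. LiveBLAzer B/G FRET substrate added, fluorescence read after 2 hours.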
# [5] = qHTS assay to identify small molecule antagonists of the estrogen receptor beta (ER-beta) signaling pathway - cell viability counter screen (AID 1259382); details: ER-beta-UAS-bla HEK293T viability, CellTiter-Glo luminescence, 16 h; series mostly up to 92.4 µM; also: potency is read from the fitted curve at half-maximal effect; nearly all actives have a fitted effect of over 55% in size
# Outline: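 Following a 6 hr plating period, HEK293T cells carrying a UAS-driven beta-lactamase reporter under ER-beta control received compounds and 1nM E2 (final). After 16 hr at 37C and 2 hr substrate loading, CellTiter-Glo luminescence indicated viability.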
# [6] = qHTS assay to identify small molecule agonists or antagonists of the thyroid stimulating hormone receptor (TSHR) signaling pathway - wild type cell line counter screen (AID 1259384; calls by dose curve; also: % is scaled to controls: 0 for no effect and ±100 for the full control effect); details: HEK293 wild type, cAMP HTRF counter-screen; cAMP activity change: at 92.4 µM (top of the series), stronger effect = higher value unless noted
# Outline: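 Wild-type HEK293 cells were plated 18 h at 37 C/5% CO2, pin-dosed with compound plus Ro20-1724 medium, held 30 min at room temperature, then given cAMP-d2 and anti-cAMP-cryptate; fluorescence was read after 1 h. Fifteen concentrations, triplicate.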
# [7] = biological target: Thyrotropin receptor (Homo sapiens) (UniProt P16473); experiment: qHTS assay to identify small molecule antagonists of the thyroid stimulating hormone receptor (TSHR) signaling pathway (AID 1259385; calls by dose curve; also: potency is read from the fitted curve at half-maximal effect; nearly all actives have a fitted effect of over 20% in size); details: TSHR-HEK293 cAMP HTRF, TSH-stimulated antagonist mode; activity change, negative = inhibition: at 92.4 µM (top of the series) unless noted
# Outline: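 TSHR-HEK293 cells were plated and held 18 h at 37C/5% CO2, then given compound plus Ro20-1724 and stimulated with TSH at 1.5 ng/mL final. After 30 min at room temperature, cAMP was detected with cAMP-d2/anti-cAMP-cryptate (1 h) by fluorescence.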
# [8] = biological target: Estrogen receptor (Homo sapiens) (UniProt P03372); experiment: qHTS assay to identify small molecule agonists of the estrogen receptor alpha (ER-alpha) signaling pathway in the presence of an antagonist (AID 1259383; calls by dose curve; also: potency is read from the fitted curve at half-maximal effect; nearly all actives have a fitted effect of over 15% in size); details: VM7Luc4E2 cells, ERE-luciferase, +ICI-182,780, 22 h; series mostly up to 42.5 µM
# Outline: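 Cells are hormone-deprived for 5 days (charcoal-stripped FBS, no phenol red), plated for 24hr, spiked with 10.0nM ICI-182,780, then dosed at 15 concentrations. After 22hr at 37C, ONE-Glo luminescence reports ERE-luciferase activity.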
# Tags tell the direction and shape of the fitted curve or compound fluorescence and quenching.
# UniProt Q92731, sequence (Q92731 whole entry, looked up): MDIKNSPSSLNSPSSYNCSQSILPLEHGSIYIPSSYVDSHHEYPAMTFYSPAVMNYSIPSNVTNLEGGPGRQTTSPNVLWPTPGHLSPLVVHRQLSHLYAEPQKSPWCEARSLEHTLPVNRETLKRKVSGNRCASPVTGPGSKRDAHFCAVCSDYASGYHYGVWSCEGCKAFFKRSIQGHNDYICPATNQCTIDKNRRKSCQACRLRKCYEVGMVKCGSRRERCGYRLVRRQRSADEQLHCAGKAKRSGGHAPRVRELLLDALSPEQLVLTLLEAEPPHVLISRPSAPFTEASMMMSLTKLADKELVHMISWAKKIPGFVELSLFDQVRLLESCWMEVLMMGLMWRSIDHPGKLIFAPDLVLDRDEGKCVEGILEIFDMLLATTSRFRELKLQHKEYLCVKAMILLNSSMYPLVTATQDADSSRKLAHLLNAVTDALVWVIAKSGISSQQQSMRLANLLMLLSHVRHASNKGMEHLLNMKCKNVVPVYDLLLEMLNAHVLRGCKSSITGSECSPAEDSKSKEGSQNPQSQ
# UniProt P06401, sequence (P06401 whole entry, looked up): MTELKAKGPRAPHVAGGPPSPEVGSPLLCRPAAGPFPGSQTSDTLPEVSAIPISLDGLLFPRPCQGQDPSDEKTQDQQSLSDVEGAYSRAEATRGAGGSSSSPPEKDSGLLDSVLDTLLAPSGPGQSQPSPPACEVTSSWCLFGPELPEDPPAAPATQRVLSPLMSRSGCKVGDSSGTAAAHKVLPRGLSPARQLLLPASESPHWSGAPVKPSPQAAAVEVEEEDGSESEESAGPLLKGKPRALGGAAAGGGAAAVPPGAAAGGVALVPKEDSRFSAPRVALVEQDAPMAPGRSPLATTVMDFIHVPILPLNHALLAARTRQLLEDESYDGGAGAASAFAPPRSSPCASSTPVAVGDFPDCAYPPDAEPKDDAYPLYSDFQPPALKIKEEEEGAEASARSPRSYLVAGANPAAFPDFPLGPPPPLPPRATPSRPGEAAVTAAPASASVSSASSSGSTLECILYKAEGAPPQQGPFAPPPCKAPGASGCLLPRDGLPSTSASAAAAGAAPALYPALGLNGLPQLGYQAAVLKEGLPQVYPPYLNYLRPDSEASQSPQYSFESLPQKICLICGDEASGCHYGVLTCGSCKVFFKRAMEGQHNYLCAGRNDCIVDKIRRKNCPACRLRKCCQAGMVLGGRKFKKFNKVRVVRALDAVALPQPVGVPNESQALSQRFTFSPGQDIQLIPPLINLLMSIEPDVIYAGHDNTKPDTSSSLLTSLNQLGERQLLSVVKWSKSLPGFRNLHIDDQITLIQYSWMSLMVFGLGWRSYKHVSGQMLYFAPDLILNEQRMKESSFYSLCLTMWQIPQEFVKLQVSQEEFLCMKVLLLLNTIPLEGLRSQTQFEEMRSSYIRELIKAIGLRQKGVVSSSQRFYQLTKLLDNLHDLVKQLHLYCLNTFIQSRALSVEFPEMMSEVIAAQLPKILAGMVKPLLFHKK
# UniProt P03372, sequence (P03372 whole entry, looked up): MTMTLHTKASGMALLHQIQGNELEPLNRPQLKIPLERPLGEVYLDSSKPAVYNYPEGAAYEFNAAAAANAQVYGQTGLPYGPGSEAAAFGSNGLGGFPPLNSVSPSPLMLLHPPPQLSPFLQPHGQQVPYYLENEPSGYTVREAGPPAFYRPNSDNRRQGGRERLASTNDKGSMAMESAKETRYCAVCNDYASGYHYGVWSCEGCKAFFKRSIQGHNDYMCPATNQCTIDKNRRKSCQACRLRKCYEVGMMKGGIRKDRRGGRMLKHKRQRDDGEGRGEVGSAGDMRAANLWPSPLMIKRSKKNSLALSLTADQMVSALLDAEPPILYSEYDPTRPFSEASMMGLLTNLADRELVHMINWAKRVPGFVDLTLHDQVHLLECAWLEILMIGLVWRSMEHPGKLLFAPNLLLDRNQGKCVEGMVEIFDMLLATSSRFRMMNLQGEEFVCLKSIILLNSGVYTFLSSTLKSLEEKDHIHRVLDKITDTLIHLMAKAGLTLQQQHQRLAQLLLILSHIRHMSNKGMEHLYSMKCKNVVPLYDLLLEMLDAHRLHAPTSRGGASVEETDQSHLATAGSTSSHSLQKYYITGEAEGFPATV
# UniProt P16473, sequence (P16473 whole entry, looked up): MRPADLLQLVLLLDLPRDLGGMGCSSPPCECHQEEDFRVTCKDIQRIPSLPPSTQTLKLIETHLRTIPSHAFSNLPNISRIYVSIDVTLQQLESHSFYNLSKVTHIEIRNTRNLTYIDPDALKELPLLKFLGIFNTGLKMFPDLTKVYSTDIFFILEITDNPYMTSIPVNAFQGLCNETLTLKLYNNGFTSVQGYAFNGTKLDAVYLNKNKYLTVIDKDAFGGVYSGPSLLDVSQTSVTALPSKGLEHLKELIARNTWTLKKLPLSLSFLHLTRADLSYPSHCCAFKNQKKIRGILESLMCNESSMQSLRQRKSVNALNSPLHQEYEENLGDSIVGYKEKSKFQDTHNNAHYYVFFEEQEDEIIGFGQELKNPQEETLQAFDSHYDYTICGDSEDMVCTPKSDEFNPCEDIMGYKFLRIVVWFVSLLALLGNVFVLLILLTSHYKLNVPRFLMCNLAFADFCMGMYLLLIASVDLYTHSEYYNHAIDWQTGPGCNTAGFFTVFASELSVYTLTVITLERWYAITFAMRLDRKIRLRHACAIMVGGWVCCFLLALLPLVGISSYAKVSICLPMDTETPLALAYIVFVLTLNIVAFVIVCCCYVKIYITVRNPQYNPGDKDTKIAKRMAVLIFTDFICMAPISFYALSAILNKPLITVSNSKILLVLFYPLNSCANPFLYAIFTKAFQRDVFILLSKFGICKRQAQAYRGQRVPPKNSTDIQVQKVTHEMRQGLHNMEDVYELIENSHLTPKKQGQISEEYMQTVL
smiles,measurement,setting,value
COc1cc(C(=O)OCCCN2CCCN(CCCOC(=O)c3cc(OC)c(OC)c(OC)c3)CC2)cc(OC)c1OC,Potency,[1],inactive
same,Potency,[2],"inconclusive: 33.5 µM [cytotoxic, single point]"
same,Potency,[3],active: 13.3 µM
same,activation,[4],inconclusive: 9.25% [at 42.5 µM]
NNc1nc(-c2ccccc2)cs1,"activity, negative = inhibition",[1],inconclusive: -55.8%
same,Potency,[2],"inconclusive: 56 µM [cytotoxic, partial curve]"
same,Potency,[5],"inconclusive: 6.29 µM [cytotoxic, full curve, poor fit]"
same,Potency,[6],inactive
same,Potency,[7],"inconclusive: 44.5 µM [falling, partial curve, poor fit]"
Fc1ccccc1[C@@H](F)COC1CCC(Nc2ncnc3[nH]ncc23)CC1 (some centres not stated),Potency,[1],inconclusive: 27.3 µM [partial curve]
same,Potency,[2],"inconclusive: 68.6 µM [cytotoxic, single point]"
same,Potency,[5],"inconclusive: 68.6 µM [cytotoxic, single point]"
same,Potency,[7],"inconclusive: 68.6 µM [falling, single point]"
same,Potency,[3],"inconclusive: 24.3 µM [cytotoxic, partial curve]"
same,activation,[4],inconclusive: -17%
NC(=O)N(O)[C@@H]1C=C[C@H](Oc2cccc(Oc3ccc(F)cc3)c2)C1,"activity, negative = inhibition",[1],inconclusive: -38.4%
same,Potency,[2],"inconclusive: 68.6 µM [cytotoxic, single point]"
same,Potency,[8],"inconclusive: 34.4 µM [activator, partial curve]"
same,Potency,[3],"inconclusive: 54.5 µM [cytotoxic, partial curve]"
CC1=Nc2ccccc2C1(C)C,"activity, negative = inhibition",[1],inconclusive: -31.7%
same,Potency,[2],"inconclusive: 30.7 µM [cytotoxic, partial curve]"
same,Potency,[8],"inconclusive: 48.6 µM [activator, partial curve, poor fit]"
